Reference: PubChem BioAssay AID463173 (ICCB-Longwood Screening Facility, Harvard Medical School, 2010)
Out of some 52,000 compounds screened, about 4,300 (8.3%) were called active. Rule as the data show it: active = survival mostly below about 52% (no sharp cut-off); inactive = mostly above about 56%. The list shows a part of the results.

These molecules were tested on DeltatarO mutant (assay: growth inhibition of S. aureus wild type versus tarO mutant, primary screen, teichoic acid synthesis inhibitors, RN4220, OD600 (AID 463173)). Conditions: OD600, 18 h, stronger effect = lower value, screened at 18.75 µg/mL (by protocol).

| SMILES | survival |
| --- | --- |
| CC(=O)N1c2c(cc(Br)cc2S(=O)(=O)N2CCN(c3cccc(Cl)c3)CC2)CC1C (stereo unspecified) | inactive: 72% |
| Cc1ccc(Cl)cc1NC(=O)Cn1c(=O)n(Cc2ccc(C(=O)NCc3ccc4c(c3)OCO4)cc2)c(=O)c2ccccc21 | inactive: 90% |
| CCN(Cc1ccccc1)C(=O)c1cc2c(s1)-c1c(C)cccc1OC2 | active: 55% |
| CC(=O)c1cccc(NS(=O)(=O)c2ccc3c(c2)NC(=O)CC(=O)N3)c1 | inactive: 93% |
| CCOC(=O)C1CCCN(C(=O)c2ccc(-n3ccc4ccccc43)s2)C1 (stereo unspecified) | active: -1% |
| CCS(=O)(=O)c1ncc(N(Cc2ccc(F)cc2)Cc2ccco2)c(C(=O)Nc2cc(C)ccc2C)n1 | inactive: 58% |
| CCOC(=O)C1CCN(C(=O)CN2c3ccc(CC)cc3-c3ccccc3S2(=O)=O)CC1 | inactive: 99% |
| CCC(=O)Nc1ccc2nc(SCCOc3ccc(C)cc3)sc2c1 | inactive: 97% |
| CCCN(CCC)C(=O)Cn1c(=O)n(-c2ccc(OC)cc2)c(=O)c2ccc(C(=O)NCc3ccc(C)cc3)cc21 | inactive: 74% |
| CCCn1c(NCc2ccc(N(CC)CC)cc2)nc2ccccc21 | active: 29% |
| CN(C)CCOC(=O)CC12CC3CC(C1)CC(CC(=O)OCCN(C)C)(C3)C2 | inactive: 95% |
| CN1CCN(c2nc3c(S(=O)(=O)c4ccccc4)nnn3c3ccsc23)CC1 | inactive: 86% |
| Cc1ccc(-n2c(SCC(=O)Nc3cccc(C)c3)nc3c(oc4ccccc43)c2=O)cc1 | inactive: 99% |
| COc1cccc(C(=O)c2cn(CC(=O)NCc3ccccc3Cl)c3nc(C)ccc3c2=O)c1 | inactive: 85% |
| O=C(Nc1cccc(O)c1)c1noc2c1CCc1ccccc1-2 | inactive: 54% |
| CCCOc1cccc(C2c3c(oc4ccccc4c3=O)C(=O)N2c2nncs2)c1 (stereo unspecified) | inactive: 69% |
| Cc1ccc(-c2nc(CS(=O)CC(=O)N3CCN(c4cccc(Cl)c4)CC3)c(C)o2)cc1 (stereo unspecified) | inactive: 46% |
| Cc1ccc(C)c(Cn2c(CCCNC(=O)C3CCCCC3)nc3ccccc32)c1 | inactive: 61% |
| c1ccc2c(c1)Nc1nc3ccccc3nc1N2 | inactive: 85% |

| SMILES | survival |
| --- | --- |
| Cc1nc(-c2cccc(NC(=O)Nc3ccccc3C(F)(F)F)c2)no1 | inactive: 130% |
| Cc1c(Cl)cccc1NC(=O)Cn1cc(C(=O)c2cccs2)c2ccccc21 | inactive: 168% |
| O=C(CSc1nc2ccsc2c(=O)n1Cc1ccccc1Cl)NCc1ccc(F)cc1 | inactive: 41% |
| CCc1ccc(-n2c(=O)c3sc4ccccc4c3n(CC(=O)N3CCCC3)c2=O)cc1 | inactive: 95% |
| CCOc1ccc(C2CC(=O)Nc3cc4c(cc32)OCO4)cc1OC (stereo unspecified) | inactive: 120% |
| COc1ccc(-c2cc(C)no2)cc1S(=O)(=O)NCc1cccs1 | inactive: 86% |
| CCc1cccc(NC(=O)CN2Cc3ccccc3C2=O)c1 | inactive: 126% |
| CCOC(=O)c1c(S(=O)(=O)N2CCCC(C(=O)Nc3ccccn3)C2)c(C)n(C)c1C (stereo unspecified) | inactive: 89% |
| COc1cc(CNC(=O)C2CCCCN2S(=O)(=O)c2ccc(F)cc2)cc(OC)c1OC (stereo unspecified) | inactive: 83% |
| N#Cc1cc2cc3c(cc2nc1SCC(=O)NC1CCCCC1)OCCO3 | inactive: 88% |
| CC(=O)N1CCc2c(sc3c2c(=O)n(-c2ccc(C)cc2)c(=O)n3Cc2c(F)cccc2Cl)C1 | inactive: 123% |
| Cc1ccc(CNC(=O)C2CCN(S(=O)(=O)c3ccc(F)cc3)CC2)cc1 | inactive: 62% |
| COc1ccc(CNC(=O)c2cc(-c3ccc(OC)cc3)nc3n[nH]c(-c4cccc([N+](=O)[O-])c4)c23)cc1 | inactive: 68% |
| COC(=O)c1c(NC(=O)Cc2coc3cc(C)ccc23)sc2c1CCCC2 | inactive: 62% |
| COc1ccc(CN2CCc3c(c(=O)n4ncc(C(=O)N5CCN(c6ccc(F)cc6)CC5)c4n3C)C2)cc1 | inactive: 94% |
| COc1ccccc1CNC(=O)c1cccn1-c1nnc(N2CCCCC2)s1 | active: 37% |
| COc1ccc(-c2nc(CNS(=O)(=O)c3ccc(Br)cc3)cs2)cc1 | inactive: 89% |
| COC(=O)c1ccc(C2c3c(-c4ccccc4O)n[nH]c3C(=O)N2Cc2ccncc2)cc1 (stereo unspecified) | inactive: 90% |
| CC(C)c1nn2c(=O)cc(COC(=O)c3ccccc3NC(=O)COc3ccccc3)nc2s1 | inactive: 75% |

| SMILES | survival |
| --- | --- |
| CC(=O)Nc1ccc(S(=O)(=O)NCCc2cn3ccsc3n2)cc1 | inactive: 81% |
| CC(=O)N1CCN(C2=NC(=O)C(=C3CCCCC3)S2)CC1 | inactive: 75% |
| CCOc1ccccc1NC(=O)c1c(NCc2cccs2)sc2c1CCC(C)C2 (stereo unspecified) | inactive: 105% |
| COC(=O)Nc1ccc(S(=O)(=O)N(CCO)CCO)cc1 | inactive: 96% |
| O=C(c1ccccc1)N(Cc1nc2ccccc2c(=O)[nH]1)C1CCCC1 | inactive: 70% |
| Cc1nnc(NC(=O)CSc2nccn2Cc2ccc(F)cc2)s1 | active: 0% |
| O=C(CSc1nc(-c2cccc(F)c2)[nH]c1-c1ccccc1)Nc1ccc2c(c1)OCCO2 | inactive: 94% |
| COc1cc(C(=O)N(CCc2ccccc2)C2CC3CCC(C2)N3C)cc(OC)c1OC (stereo unspecified) | inactive: 102% |
| CCC(=O)N1CCc2cc(OC)c(OC)cc2C1COc1ccccc1OC (stereo unspecified) | inactive: 84% |
| CCc1ccc(NC(=O)CCCc2nnc3n(CC(C)C)c(=O)c4sccc4n23)cc1 | inactive: 102% |
| CC(C)CN(CC(C)C)S(=O)(=O)c1ccc(C(=O)Nc2sc3c(c2C(N)=O)CC(C)(C)NC3(C)C)cc1 | inactive: 87% |
| O=C(Nc1c2c(nn1-c1ccc(Cl)cc1)CS(=O)(=O)C2)c1cccc(F)c1 | inactive: 55% |
| COC(=O)C1=C(C)NC(C)=C(C(=O)OC)C1C1CC=CCC1 (stereo unspecified) | inactive: 101% |
| CCOC(=O)c1sc(NC(=O)CSc2nnc(Cn3nnc4ccccc43)n2C)nc1C | inactive: 94% |
| Cc1cc(-c2ccc(S(=O)(=O)Nc3ccccc3F)s2)on1 | inactive: 88% |
| CC(=O)Nc1nc(SCc2ccccc2Cl)n[nH]1 | inactive: 91% |
| O=C(Nc1ccc2oc(=O)ccc2c1)c1cccs1 | inactive: 83% |
| CC(NC(=O)Cc1ccc(NC(=O)N2CCSc3ncccc32)cc1)c1ccccc1 (stereo unspecified) | inactive: 75% |
